Data on two molecules can be found in US20050070689A1 (Genentech, published 2005).

The target in one assay is T1, Flag-APRIL (human, UniProt O75888 105-250).
T1 construct: Purified on M2 anti-Flag resin
T1 sequence: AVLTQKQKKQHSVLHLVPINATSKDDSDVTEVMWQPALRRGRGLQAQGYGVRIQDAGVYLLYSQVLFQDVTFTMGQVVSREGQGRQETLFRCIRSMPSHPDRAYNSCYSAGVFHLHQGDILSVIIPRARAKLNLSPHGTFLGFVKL
The experiment in a line: co-immunoprecipitation with protein A-agarose, anti-Flag Western blot. On the procedure: One μg of the purified Flag-APRIL or Flag-TALL-1 was incubated with 1 μg of purified human immunoadhesin containing the IgG1-Fc fusion of the ECD of BR3 or TACI overnight at 4° C. The TACI-ECD.hFc immunoadhesins were prepared by methods described in Ashkenazi et al., Proc. Natl. Acad. Sci., 88:10535-10539 (1991). The immunoadhesin constructs consisted of amino acids 2-166 of the human TACI polypeptide (see FIG. 1). The TACI-ECD constructs were expressed in CHO cells using a heterologous signal sequence (pre-pro trypsin amino acids 1-17 of pCMV-1 Flag (Sigma)) and encoding the human IgG1 Fc region downstream of the TACI sequence, and then purified by protein A affinity chromatography. The BR3-ECD immunoadhesins were prepared by methods described in Ashkenazi et al., as cited above. The immunoadhesin constructs consisted of amino acids 2-62 of the human BR3 polypeptide (see FIG. 6B). […]
The mixture was subjected to immunoprecipitation through the receptor-immunoadhesin with protein A-agarose (Repligen). The immunoprecipitates were then analyzed by Western blot with horseradish peroxidase-conjugated anti-Flag M2 mAb (Sigma) to detect the Flag-tagged ligands. Flag-TALL-1, but not Flag-APRIL, was readily detected in complex with hBR3-hFc whereas TACI-hFc bound both Flag-TALL-1 and Flag-APRIL.

Assay [1] has as its target T2, TACIs expressed on transfected COS 7 cells (human, UniProt O14836 1-292).
T2 sequence: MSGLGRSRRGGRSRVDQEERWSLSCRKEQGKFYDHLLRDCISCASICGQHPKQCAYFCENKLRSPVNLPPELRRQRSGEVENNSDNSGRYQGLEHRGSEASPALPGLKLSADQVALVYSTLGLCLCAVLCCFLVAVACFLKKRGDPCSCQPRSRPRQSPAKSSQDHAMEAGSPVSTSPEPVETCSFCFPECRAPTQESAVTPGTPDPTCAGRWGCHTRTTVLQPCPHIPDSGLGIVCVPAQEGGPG
The experiment in a line: AP-TALL-1 staining of transfected cells, in situ AP activity.

Assay [2] addresses T3, human BR3 expressed on transfected COS 7 cells (human, UniProt Q96RJ3 1-184).
T3 construct: also called hBR3
T3 sequence: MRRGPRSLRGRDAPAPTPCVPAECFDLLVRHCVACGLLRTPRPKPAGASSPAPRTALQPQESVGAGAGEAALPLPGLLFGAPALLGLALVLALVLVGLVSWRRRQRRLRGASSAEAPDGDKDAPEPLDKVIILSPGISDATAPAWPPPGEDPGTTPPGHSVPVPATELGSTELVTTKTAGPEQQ
The experiment in a line: expression cloning: AP-TALL-1 conditioned medium on COS 7 cells transfected with cDNA pools, in situ AP staining. On the procedure: To identify a receptor for TALL-1, a cDNA expression library was constructed in pRK5 vector (EP 307,247, published Mar. 15, 1989) using PolyA+ mRNA derived from human spleen and IM-9 cells [Flanagan et al., Cell, 63:185 (1990); Tartaglia et al., Cell, 83:1263-1271 (1995)]. Pools of ˜1000 cDNA clones (Miniprep DNA (Qiagen)) from the library were transfected (using Lipofectamine) into COS 7 cells (ATCC) in 12 well plates using Fugene 6 (Roche Molecular Biochemicals), which after 36-48 hours, were then incubated with AP-TALL-1 conditioned medium, washed, and stained for AP activity in situ. [Yan et al., supra (2000)]. A positive pool was broken down to successively smaller size pools which contained neither TACI nor BCMA. After rounds of screening, cDNA encoding an AP-TALL-1 binding activity was identified. […] This polypeptide (amino acid residues 1-184 of FIG. 6B) was referred to as BR3. (Another cDNA encoding an AP-TALL-1 and AP-APRIL binding activity was also identified, and this molecule is identified as TACIs, described further below).

B1: hBR3-hFc (Fc fusion)
chain: not shown
notes: also called BR3-ECD immunoadhesin; not shown: human IgG1 Fc region
Regarding B1, the binding result with Flag-APRIL is “no binding (tested: 1 µg of each protein)”.

B2: AP-TALL-1 (ligand)
chain: not shown
notes: Used as conditioned medium of transfected 293 cells; AP is at the N-terminus of TALL-1; Flag precedes AP (as described for AP-APRIL); not shown: human placental alkaline phosphatase (AP), amplified from pAPtag-5
In the case of B2, the binding result in assay [1] and in assay [2] was “binds” in each case.
